According to the supplement of paper PMC3334620:
The full ranking holds about 33,000 sequences; the median of “E-score (-0.5 to 0.5)” is about -0.01, and the highest 2% start at about 0.26. The list shows a part of the results.

Target: Ste12 (UniProt P13574)
Assay: PBM E-score (8-mer binding enrichment) (E-score (-0.5 to 0.5)); higher = stronger / more preferred TF binding; most listed sequences are background and not binding sites
Conditions: protein concentration: 200 nM; construct: GST-DNA-binding domain
Summary of the method: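 Detection of bound protein used fluorescent anti-GST, with scans normalised by masliner. The proteins were GST-tagged yeast transcription factors applied at about 100-200 nM to universal all-10-mer Agilent arrays made double-stranded by primer extension. Each ungapped eight-base word, pooled with its reverse complement, was scored with an E-score from the Universal PBM Analysis Suite.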

Sequence	PBM E-score
ACAACCTG	-0.016
ATACACCA	-0.0593
AGTGGGAG	-0.0202
AGTGTCGC	0.0423
GCCTCGAC	0.0326
ACGTAAGG	-0.196
CCATACTA	0.00663
CTCGTACC	-0.0643
ATTTGATA	0.258
AGCATACT	-0.0969
AGATCTAG	-0.0252
TCTGCAGA	-0.134
TCTACGAA	-0.129
GTATTTAA	0.249
ATTTTCCC	0.173
GGCACACC	-0.109
CGACTAAG	-0.0345
CGTCCCGA	-0.065
CAGAACGG	-0.162
ACACGTAT	0.0228
CCCTAGAA	0.056
CTGAAACC	0.47
AAACAAAT	0.28

Sequence	PBM E-score
GCAAAACC	0.0345
CAATTACG	0.0434
AATCACAG	0.0535
ACTGATCC	0.058
AACCACCC	0.0945
GACTATAA	0.0113
GCCCAGCC	0.0397
AAAACGGT	0.152
ATTTTGAC	0.202
CTACCGAC	-0.0631
CCCGAACA	0.128
GGTTGCAA	0.0835
AGAATGTA	0.0693
ACGCCGCG	0.00025
TACGCGGA	-0.103
AATAGCCC	-0.0699
ATTGGTTA	0.241
CGGAAATA	0.217
AACTGCTT	-0.081
ACGATCAC	-0.0748
ATGCTGGC	-0.00831
CGAAATTC	0.158
AAGTACCT	-0.297

Sequence	PBM E-score
ACGATAGA	-0.15
ACGCACGT	-0.159
AAAAGAAT	0.266
GACGCGAA	0.0261
AGATCCGG	-0.0245
CCATGTTC	-0.0544
ACCACTCC	0.16
AGAAGATG	0.0434
ACAGGTAT	-0.00823
AGCCTTTA	0.0298
GTGCGAAC	-0.216
ATCGCGGA	-0.0253
CTACAGTC	-0.21
TACGACAA	0.0899
CGCGTACC	-0.113
CCCCGTGC	0.149
CCTTTATA	-0.034
ACATAACG	0.0659
ATTTGCGA	0.0925
CCTCCACG	-0.253
CATCACCA	0.106
AAGGGGAG	-0.0849
CGGGTAGA	-0.0167

Sequence	PBM E-score
GTTTGACA	0.0294
CCCGCCGC	0.31
TGAAAGAA	0.131
CTGCAGTA	-0.213
TCTAAAAA	0.235
ACCTTTTC	0.00718
ACGCTGGA	-0.0162
CTGTTATC	0.101
CAGGGAGG	-0.115
CCACGACA	-0.104
GATATTTA	0.169
CGTCAACC	-0.288
TAGTTGCA	0.12
GTGTCCAA	-0.221
GTAATTAC	0.0645
ACCGTAGC	-0.104
CAGAAGCG	0.00541
CGTGCGGC	-0.153
GTTTTAAA	0.378
GCGGGTGA	0.0419
GGAGAATA	0.0628
ACCTCATG	-0.0225
GCCGCAGC	0.00254

Sequence	PBM E-score
TTTACAAA	0.294
AGATGGTG	-0.0651
ATTGAAAT	0.233
ATTGCAGG	-0.0276
AGTATCAA	0.217
CCGCTTCG	-0.179
CGGTTGGA	-0.0539
AACAAGCA	0.116
CCGGCGCG	0.0515
TATGTAAA	0.232
ATCATCAG	-0.128
ACGGACGC	-0.251
ACCGCGCA	0.126
GAACGAGA	0.00429
GTTGGCCA	-0.046
CAACGCGA	-0.00853
ATTCGGTC	0.0374
GAGACAGA	0.0576
CCACTACG	-0.142
GGTGGGCA	0.0362
AAACGTCA	0.0944
